Data reported in the supplement of paper PMC4967469.
A lower IC50 marks a more sensitive line; a fit beyond the top or the lowest dose is shown as a bound at that dose. AUC sums up the same curve from the lowest dose to the 256-fold higher top dose: 1 means no effect, lower means more sensitive.

Compound: FC(F)c1nc2ccccc2n1-c1nc(N2CCOCC2)nc(N2CCOCC2)n1 [ZSTK474]
Experiment: Viability of human cancer cell lines after 72 h of drug (GDSC screen)
Method: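 Human cancer cell lines in 384-well plates, medium with 10% serum, drug for 72 h over a 256-fold dose range (nine 2-fold or five 4-fold steps up to the top dose). Adherent lines were fixed and stained with the nucleic acid dye Syto60, suspension lines read with resazurin; signal relative to control wells, capped at 0 and 100%. One two-parameter sigmoid per drug and line, fitted in a mixed model over all curves with the slope shared within a line.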

| Cell Line | AUC | IC50 [nM] |
| --- | --- | --- |
| KYSE-510 (oesophagus, adherent, top dose 5.12 µM) | 0.949 | > 5120 |
| KYSE-520 (oesophagus, adherent, top dose 5.12 µM) | 0.653 | 987 |
| L-363 (myeloma, suspension, top dose 5.12 µM) | 0.682 | 950 |
| L-428 (Hodgkin lymphoma, suspension, top dose 5.12 µM) | 0.963 | > 5120 |
| L-540 (Hodgkin lymphoma, suspension, top dose 5.12 µM) | 0.848 | 3190 |
| L-1236 (Hodgkin lymphoma, suspension, top dose 5.12 µM) | 0.899 | 4670 |
| LAMA-84 (chronic myeloid leukaemia, suspension, top dose 5.12 µM) | 0.754 | 1750 |
| LAN-6 (neuroblastoma, adherent, top dose 5.12 µM) | 0.869 | > 5120 |
| LB373-MEL-D (melanoma, adherent, top dose 5.12 µM) | 0.955 | > 5120 |
| LB647-SCLC (small cell lung carcinoma, semi-adherent, top dose 5.12 µM) | 0.723 | 1500 |
| LB771-HNC (head and neck, adherent, top dose 5.12 µM) | 0.707 | 1440 |
| LB831-BLC (bladder, adherent, top dose 5.12 µM) | 0.878 | > 5120 |
| LB996-RCC (kidney, adherent, top dose 5.12 µM) | 0.965 | > 5120 |
| LB1047-RCC (kidney, adherent, top dose 5.12 µM) | 0.695 | 1220 |
| LB2241-RCC (kidney, adherent, top dose 5.12 µM) | 0.981 | > 5120 |
| LB2518-MEL (melanoma, adherent, top dose 5.12 µM) | 0.764 | 1960 |
| LC4-1 (lymphoblastic leukaemia, suspension, top dose 5.12 µM) | 0.324 | 97.6 |
| LC-1-sq (lung squamous cell carcinoma, adherent, top dose 5.12 µM) | 0.77 | 2290 |
| LC-2-ad (lung adenocarcinoma, adherent, top dose 5.12 µM) | 0.679 | 1020 |
| LCLC-97TM1 (large cell lung carcinoma, adherent, top dose 5.12 µM) | 0.67 | 1000 |

| Cell Line | AUC | IC50 [nM] |
| --- | --- | --- |
| LCLC-103H (large cell lung carcinoma, adherent, top dose 5.12 µM) | 0.816 | 2510 |
| LK-2 (lung squamous cell carcinoma, adherent, top dose 5.12 µM) | 0.881 | 4850 |
| LN-18 (glioma, adherent, top dose 5.12 µM) | 0.985 | > 5120 |
| LN-229 (glioma, adherent, top dose 5.12 µM) | 0.921 | > 5120 |
| LN-405 (glioma, adherent, top dose 5.12 µM) | 0.675 | 1120 |
| LNCaP-Clone-FGC (prostate, adherent, top dose 5.12 µM) | 0.383 | 145 |
| LNZTA3WT4 (glioma, adherent, top dose 5.12 µM) | 0.906 | > 5120 |
| LOU-NH91 (lung squamous cell carcinoma, adherent, top dose 5.12 µM) | 0.95 | > 5120 |
| LOUCY (T-cell lymphoblastic leukaemia, suspension, top dose 5.12 µM) | 0.422 | 205 |
| LOXIMVI (melanoma, semi-adherent, top dose 5.12 µM) | 0.873 | 4010 |
| LP-1 (myeloma, suspension, top dose 5.12 µM) | 0.543 | 411 |
| LS-123 (large intestine, adherent, top dose 5.12 µM) | 0.705 | 1480 |
| LS-180 (large intestine, adherent, top dose 5.12 µM) | 0.869 | > 5120 |
| LS-411N (large intestine, adherent, top dose 5.12 µM) | 0.65 | 915 |
| LS-513 (large intestine, adherent, top dose 5.12 µM) | 0.793 | 2450 |
| LS-1034 (large intestine, adherent, top dose 5.12 µM) | 0.784 | 2420 |
| LU-65 (large cell lung carcinoma, suspension, top dose 5.12 µM) | 0.711 | 1420 |
| LU-99A (large cell lung carcinoma, adherent, top dose 5.12 µM) | 0.901 | > 5120 |
| LU-134-A (small cell lung carcinoma, suspension, top dose 5.12 µM) | 0.808 | 2850 |
